Assay results: PubChem BioAssay AID1468 (National Center for Advancing Translational Sciences (NCATS), 2008)
Among all 280,000 compounds or so, about 1,100 (0.39%) were called active. Inconclusive means that the source gave no clear call. Such entries were picked first, then a sample of the others. Calls follow the shape of the dose curve; as a rule, active = well fitted inhibition curve with a large enough effect; inconclusive = small, poorly fitted or top-dose-only effect, or effect the other way; inactive = flat fitted curve, though single readings scatter. No potency is given beside an inconclusive call; the fits are too rough.

Target: Microtubule-associated protein tau (Homo sapiens) (UniProt P10636)
Test: qHTS for Inhibitors of Tau Fibril Formation, Fluorescence Polarization; also: nearly all actives have a fitted effect of over 55% in size
Details: K18 P301L tau heparin fibrillization, Alexa594 FP, 6 h; series mostly up to 57.7 µM; activity, negative = inhibition: at the top concentration
How it was run: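 Read-out: fluorescence polarization of Alexa 594-labeled tau (0.24 uM), 555 nm excitation, 632 nm emission. Mixtures held 15 uM unlabeled K18 P301L, compound and 20 uM heparin, pH 7 acetate buffer, incubated 6 hr at 37 C.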
% is scaled to controls: 0 for no effect and ±100 for the full control effect; potency is read from the fitted curve at half-maximal effect; tags tell the direction and shape of the fitted curve.

UniProt P10636, sequence (P10636 whole entry, looked up): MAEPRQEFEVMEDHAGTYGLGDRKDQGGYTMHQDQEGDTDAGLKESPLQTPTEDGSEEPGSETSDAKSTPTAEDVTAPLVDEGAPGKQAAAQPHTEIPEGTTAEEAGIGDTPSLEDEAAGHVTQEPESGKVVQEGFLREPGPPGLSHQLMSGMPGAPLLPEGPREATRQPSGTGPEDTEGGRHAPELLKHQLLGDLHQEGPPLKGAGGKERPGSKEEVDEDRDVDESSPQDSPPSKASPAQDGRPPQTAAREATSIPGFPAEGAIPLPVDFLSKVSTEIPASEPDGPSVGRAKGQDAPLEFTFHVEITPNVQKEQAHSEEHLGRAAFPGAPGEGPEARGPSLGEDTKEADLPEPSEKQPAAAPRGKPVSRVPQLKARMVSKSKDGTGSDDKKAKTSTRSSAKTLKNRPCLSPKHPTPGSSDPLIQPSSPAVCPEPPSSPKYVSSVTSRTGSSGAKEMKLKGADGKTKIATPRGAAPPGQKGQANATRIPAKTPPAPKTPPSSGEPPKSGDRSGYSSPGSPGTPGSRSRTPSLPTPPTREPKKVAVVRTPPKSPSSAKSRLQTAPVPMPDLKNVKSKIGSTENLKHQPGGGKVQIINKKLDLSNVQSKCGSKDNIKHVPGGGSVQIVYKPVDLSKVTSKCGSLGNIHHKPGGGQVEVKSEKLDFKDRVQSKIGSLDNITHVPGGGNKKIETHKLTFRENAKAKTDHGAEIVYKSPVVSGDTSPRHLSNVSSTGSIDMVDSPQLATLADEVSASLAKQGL

Row | Structure (SMILES) | Potency | activity, negative = inhibition
1 | COc1ccc(/C=C(\C#N)C(=O)OCC(=O)Nc2ccc(C(C)(C)C)cc2)cc1 | inconclusive [inhibitor, partial curve] | 
2 | CC(C)C(C)NC(=O)CSc1nc2scc(-c3ccco3)c2c(=O)n1-c1ccccc1 (stereo not drawn) | active: 4.47 µM | 
3 | COC(=O)c1cc(NC(=O)Nc2ccc3snnc3c2)cc(C(=O)OC)c1 | inconclusive [inhibitor, partial curve] | 
4 | CCN(Cc1nc(-c2cccc(C)c2)no1)S(=O)(=O)c1ccc(C)cc1 |  | inactive: -4.84%
5 | Cc1cccc(NC(=O)C(C)OC(=O)c2ccccc2NS(=O)(=O)c2cc(C)c(C)c([N+](=O)[O-])c2)c1 (stereo not drawn) |  | inactive: 7.02%
6 | O=C(CSc1ncnc2c1oc1ccccc12)Nc1nc2ccccc2s1 | inconclusive [inhibitor, single point] | 
7 | CCOc1ccc(NC(=O)CCN2CCN(S(=O)(=O)c3cc(Cl)ccc3OC)CC2)cc1 | inconclusive [activator, full curve, poor fit] | 
8 | Cc1ccccc1-c1noc(-c2ccc(N3CCN(c4ccccc4)CC3)c([N+](=O)[O-])c2)n1 | inconclusive [inhibitor, full curve, poor fit] | 
9 | CCOc1ccc(C(=O)CC(Sc2ccc(C)cc2)C(=O)O)cc1 (stereo not drawn) | inconclusive [inhibitor, single point] | 
10 | Cc1cc(-c2ccc(Br)s2)nc(-n2cccc2)n1 | inconclusive [inhibitor, single point] | 
11 | N/C(Cc1ccc(Cl)cc1)=N\OC(=O)c1cccc2ccccc12 | inconclusive [inhibitor, partial curve] | 
12 | CCn1c2ccc(/C(C)=N\O)cc2c2cc(/C(C)=N\O)ccc21 |  | inactive: -5.79%
13 | COc1ccc(C)c2sc(N(Cc3cccnc3)C(=O)CCc3ccccc3)nc12 |  | inactive: 5.34%
14 | CCc1ccc(S(=O)(=O)/N=C2\C=CC(=O)c3ccccc32)cc1 | inconclusive [inhibitor, single point] | 
15 | CCCCN(CC)C(=O)Nc1ccc2c(c1)N(C)C(=O)c1ccccc1S2 | inconclusive [activator, full curve, poor fit] | 
16 | S=C(NCCSCc1ccccc1Cl)Nc1ccccc1 | inconclusive [inhibitor, partial curve] | 
17 | CCc1ccc(-c2nc(NC(=S)NC(=O)c3cccs3)sc2C)cc1 |  | inactive: -16.9%
18 | [O-][n+]1onc2c1CCC(=N/O)/C2=N\Nc1ccccc1 | inconclusive [inhibitor, partial curve] | 
19 | COC(=O)c1c(C)sc(-c2c(-c3cccc(OC)c3)[nH]c3c2c(=O)[nH]c(=O)n3C)c1O | inconclusive [activator, partial curve, poor fit] | 
20 | Cc1cccc(/C=N\NC(=O)c2csnn2)c1 |  | inactive: -1.31%
21 | CCOC(=O)c1ccc(NC(=O)COC(=O)Cc2csc(-c3ccccc3)n2)cc1 | inconclusive [inhibitor, single point] | 
22 | CN1CCN(NS(=O)(=O)c2ccc(Cl)s2)CC1 | inconclusive [inhibitor, partial curve, poor fit] | 
23 | Cc1ccc(C(=O)COC(=O)c2cc(-c3ccc(Cl)cc3)nc3ccccc23)cc1 | inconclusive [inhibitor, full curve, poor fit] | 

Row | Structure (SMILES) | Potency | activity, negative = inhibition
24 | C/C(=N\N=C\c1ccccc1F)c1nnn(-c2nonc2N)c1C | inconclusive [inhibitor, partial curve] | 
25 | CCN(CC)c1ccc(/C=N/n2nnnc2N)c(O)c1 |  | inactive: 5.76%
26 | CCn1nnc(-c2ccccc2NC(=O)c2cc(OC)c(OC)c(OC)c2)n1 |  | inactive: 4.31%
27 | CCOc1ccc(CCNc2nc3c(-c4ccc(C)cc4)nnn3c3ccccc23)cc1OCC |  | inactive: -11.3%
28 | Cc1ccc(-c2ccc(=O)n(CC(=O)Nc3ccc(F)c(Cl)c3)n2)cc1C | inconclusive [inhibitor, partial curve] | 
29 | Cn1cc(CN2CCc3ccccc3C2)c2ccccc21 |  | inactive: 7.48%
30 | Cc1ccc(S(=O)(=O)c2c(Nc3cccc(Cl)c3)sc(C(=O)c3ccc4c(c3)OCO4)c2N)cc1 | inconclusive [inhibitor, single point] | 
31 | O=C(NCC(=O)N(Cc1cccs1)C(C(=O)NC1CCCC1)c1ccncc1)c1ccco1 (stereo not drawn) | inconclusive [inhibitor, single point] | 
32 | CC1CCCCN1CC(=O)N1CCCc2c1c(=O)oc1ccc(OCc3ccccc3)cc21 (stereo not drawn) |  | inactive: -4.88%
33 | O=C(COC(=O)COc1ccc2ccccc2c1)NCC(F)(F)F |  | inactive: 0.654%
34 | O=C1Cc2ccccc2C(=O)N1CCc1ccccc1 | inconclusive [inhibitor, single point] | 
35 | Cn1cc(CN(Cc2ccccc2)C[C@@H]2CCC(=O)N2)c(-c2ccccc2F)n1 |  | inactive: -8.26%
36 | Cc1ccc(-c2nc(SCC(=O)NCC3CCCO3)c(-c3ccc(C)cc3)[nH]2)cc1 (stereo not drawn) | inconclusive [activator, partial curve] | 
37 | O=C(c1cc([N+](=O)[O-])ccc1Cl)N1c2ccccc2Sc2ccccc21 | inconclusive [activator, single point] | 
38 | NC(=O)c1cc(S(=O)(=O)NCC2CCC(C(=O)Nc3ccc(Cl)cc3)CC2)cs1 (stereo not drawn) | inconclusive [inhibitor, full curve, poor fit] | 
39 | O=c1oc2ccccc2c(Cl)c1CN1CCCCC1 |  | inactive: -10.4%
40 | COc1ccc2c(c1)c(=O)oc1c(C)c(OCC(=O)N3CCc4ccccc4C3)ccc12 | inconclusive [inhibitor, single point] | 
41 | CCOC(=O)NCc1ccc(Cl)c(Cl)c1 |  | inactive: -2.6%
42 | Cc1sc2nc(C3CC3)nc(SCC(=O)N3CCc4ccccc4C3)c2c1C | inconclusive [inhibitor, partial curve, poor fit] | 
43 | Cc1cccn2cc(COc3cccc([N+](=O)[O-])c3)nc12 |  | inactive: -2.85%
44 | CCCCn1c(=O)c2oc3ccccc3c2n(CC(=O)Nc2cccc(Cl)c2)c1=O | inconclusive [inhibitor, partial curve, poor fit] | 
45 | CCOC(=O)c1cccc(Nc2ccc3cc(S(=O)(=O)N4CCCCC4)ccc3n2)c1 | inconclusive [inhibitor, partial curve] | 
46 | COC(=O)c1ccccc1NC(=O)/C=C/c1ccco1 |  | inactive: 4.1%

Row | Structure (SMILES) | Potency | activity, negative = inhibition
47 | NC(=O)c1cccnc1Nc1ccccc1F | inconclusive [inhibitor, full curve, poor fit] | 
48 | Cc1ccc(C)c(NC(=O)Cn2c(=O)n(CCC(=O)NCc3ccc4c(c3)OCO4)c(=O)c3ccccc32)c1 | inconclusive [inhibitor, partial curve] | 
49 | Clc1ccc(OCCSc2ncccn2)c2ccccc12 | inconclusive [inhibitor, partial curve, poor fit] | 
50 | O=C(Nc1ccc(N2CCOCC2)cc1)c1cc2c(s1)CCCC2 |  | inactive: 6.3%
51 | Cc1nn(CC(=O)NCc2ccc(OC(C)C)cc2)c(=O)c2c(C)n(-c3ccc(Cl)cc3)nc12 |  | inactive: 8.61%
52 | COc1ccc(C(=O)Oc2cc(N)n(S(=O)(=O)c3ccccc3)n2)cc1 | inconclusive [inhibitor, partial curve] | 
53 | CCCCC1=CC2=CC(=O)C(C)(OC(=O)CCc3ccccc3)C(=O)C2=CO1 (stereo not drawn) | inconclusive [inhibitor, single point] | 
54 | Cc1ccc2oc(-c3ccc(Cl)c(NC(=O)c4ccc(-c5ccccc5[N+](=O)[O-])o4)c3)nc2c1 |  | inactive: -7.9%
55 | COc1ccc(OC)c2c(C)cc(C)nc12 | inconclusive [activator, single point] | 
56 | O=C(CSc1ncnc2ccccc12)NCc1ccco1 |  | inactive: -3.3%
57 | CC(C)CCNC(=O)CSCc1cnn(-c2ccccc2)c1-n1cccc1 | inconclusive [inhibitor, single point] | 
58 | COc1nc(Nc2ccc([N+](=O)[O-])cc2)nc(NC2CCCCC2)n1 | inconclusive [inhibitor, single point] | 
59 | COc1ccc(NC(=O)Cn2c(=O)n(Cc3nc(-c4ccccc4)no3)c(=O)c3cc4c(cc32)OCO4)cc1Cl | inconclusive [inhibitor, partial curve] | 
60 | O=C(Nc1ccc(Cl)c(Cl)c1)N1CCC(c2ccccc2)C1 (stereo not drawn) | inconclusive [inhibitor, partial curve] | 
61 | Cc1ccc(S(=O)(=O)c2c(N)n(/N=C/c3ccco3)c3nc4ccccc4nc23)cc1C | inconclusive [inhibitor, partial curve] | 
62 | COC(=O)[C@@]1(Cc2ccccc2)[C@H]2c3cc(C(=O)N(C)C)n(CCF)c3C[C@H]2CN1C(=O)c1ccccc1 |  | inactive: 5.74%
63 | O=C(CN1CCN(Cc2ccc(Cl)cc2)CC1)N/N=C/C=C/c1ccccc1[N+](=O)[O-] |  | inactive: 1.8%
64 | CCc1ccccc1NC(=O)CSc1nnc(-c2ccc(OC)cc2)s1 | inconclusive [inhibitor, partial curve] | 
65 | Cc1cc(C)cc(NC(=S)NCc2cccnc2)c1 | inconclusive [inhibitor, full curve, poor fit] | 
66 | COCCNc1c2c(c(C#N)c3nc4ccccc4n13)CCCC2 | inconclusive [activator, single point] | 
67 | CCCCOc1ccc(C(=O)Nc2ccc(N3CCN(C(C)=O)CC3)cc2)cc1 | inconclusive [inhibitor, single point] | 
68 | CC1OC(Nc2ccc(N=Nc3ccccc3)cc2)C(O)C(O)C1O (stereo not drawn) | inconclusive [inhibitor, single point] | 
